The source of these data is PubChem BioAssay AID1159614 (National Center for Advancing Translational Sciences (NCATS), 2016).

In all, about 45,000 compounds went through this assay and about 65 (0.1%) were called active. Calls follow the shape of the dose curve; as a rule, active = well fitted activation curve with a large enough effect; inconclusive = small, poorly fitted or top-dose-only effect; inactive = no such curve, though single readings can be large or run the other way. This is one part of the list.

In this assay the target is Galactocerebrosidase (Homo sapiens) (UniProt P54803). In words: A Novel Cell-Based Assay to Identify Small Molecules for B -Galactocerebrosidase. Also: 0% is about no effect; nearly all actives have a fitted effect of over 65% in size. As to conditions: 145M-Twi-hGALC-G270D cells (Twitcher mouse brain line with human GALC G270D), HMU-beta-Gal fluorescence, 48 h; series mostly up to 57.5 µM; activation: at the top concentration. A digest of the protocol: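 Brain-derived Twitcher mouse 145M-Twi cells stably expressing human GALC-G270D or wild-type GALC, treated live, then residual GALC activity read by fluorescence of HMU-b-Gal substrate (0.1 mM final) in citrate-phosphate buffer pH 5.2 with sodium taurocholate. Signal increase indicates enhancement.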
UniProt P54803, sequence (P54803 whole entry, looked up): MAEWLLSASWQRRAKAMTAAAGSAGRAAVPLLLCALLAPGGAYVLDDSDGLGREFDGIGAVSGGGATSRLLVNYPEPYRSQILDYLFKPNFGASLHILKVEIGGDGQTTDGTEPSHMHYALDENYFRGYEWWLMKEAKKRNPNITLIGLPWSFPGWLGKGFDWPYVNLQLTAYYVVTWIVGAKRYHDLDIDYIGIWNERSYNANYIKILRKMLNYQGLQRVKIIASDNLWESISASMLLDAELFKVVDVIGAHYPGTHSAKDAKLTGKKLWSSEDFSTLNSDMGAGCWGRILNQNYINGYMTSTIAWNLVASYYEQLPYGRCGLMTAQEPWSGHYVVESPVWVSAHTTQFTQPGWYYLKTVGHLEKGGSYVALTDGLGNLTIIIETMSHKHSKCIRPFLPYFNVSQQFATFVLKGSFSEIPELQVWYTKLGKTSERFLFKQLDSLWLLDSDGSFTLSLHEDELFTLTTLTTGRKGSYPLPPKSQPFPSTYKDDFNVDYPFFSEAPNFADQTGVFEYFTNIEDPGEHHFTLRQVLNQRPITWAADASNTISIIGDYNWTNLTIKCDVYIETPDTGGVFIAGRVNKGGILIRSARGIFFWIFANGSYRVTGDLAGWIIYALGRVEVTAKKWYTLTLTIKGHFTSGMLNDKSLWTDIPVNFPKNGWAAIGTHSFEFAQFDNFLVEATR
Turning to `C[C@]12CC[C@@H]3c4ccc(O)cc4CC[C@H]3[C@@H]1C[C@@H](O)[C@@H]2O`, the “activation” value was inactive: -13.9%.
As to `COC(=O)c1ccccc1NC(=O)c1nc(S(=O)(=O)Cc2ccccc2F)ncc1Cl`, the “activation” value is inactive: -18.1%.
Turning to `CCc1ccccc1NC(=O)C1CCN(c2nn3c(=O)cc(C)nc3s2)CC1`, the “activation” value was inactive: -6.28%.
With `CN(C)S(=O)(=O)Nc1ccc(-c2cn3ccsc3n2)cc1`, the “activation” value was inactive: -10.9%.
Turning to `COc1cccc(CC(=O)NCc2ccc3c(c2)CCN3C(C)=O)c1`, the “activation” value is inactive: -10.6%.
For `Cc1ccc2oc(C(=O)Nc3ccc(S(=O)(=O)N(C)Cc4ccccc4)cc3)cc(=O)c2c1`, the “activation” value is inactive: -24.8%.
In the case of `CCc1ccc(-n2c(=O)c3c4c(sc3n(CC(=O)NCCCOC)c2=O)CCC4)cc1`, the “activation” value was inactive: 0.142%.
Take `Cc1cccc(Cc2cnc(NC(=O)c3ccc4c(c3)CC(c3ccccc3)OC4=O)s2)c1` (configuration not stated): the “activation” value was inactive: -6.75%.
`CC(C)Oc1ccc(CNC(=O)c2ccc3nc(SCc4ccc(F)cc4)n(C)c3c2)cc1`: the “activation” value is inactive: -2.32%.
Take `Cc1ccccc1Cn1c(C)c(CNCc2ccccc2)c(C(=O)O)c1C`: the “activation” value is inactive: -11.6%.
Consider `CC(NC(=O)c1ccc2nc(CCc3ccccc3)oc2c1)c1ccccc1` (configuration not stated), for which the “activation” value is inactive: -7.17%.
Then `COc1ccc(NC(=O)CN(C)S(=O)(=O)c2ccc3[nH]c4c(c3c2)CCCC4)cc1OC`, with inactive: -10.8%; and `COc1ccc(NC(=O)c2nc(SCc3ccccc3F)ncc2Cl)cc1`, with inactive: -16.8%; and `O=C(NCCc1ccc(Cl)cc1)c1ccc2c(c1)N(Cc1ccccc1)CCS2`, with inactive: -15.4%.
Then `O=C(Nc1ccc2oc(-c3cccnc3)nc2c1)c1ccc(-c2cccc(OC(F)(F)F)c2)o1`, with inactive: -26.8%.
Take `COc1cccc(N2CCN(C(=O)c3ccc(CS(=O)c4cccc(Cl)c4)o3)CC2)c1` (configuration not stated): the “activation” value is inactive: -12.9%.
Regarding `Cc1ccc(C)c(NC(=O)CCc2c(C)n(C)c3cc(-c4ccccc4C)nn3c2=O)c1`, the “activation” value is inactive: 3.06%.
In the case of `Cc1ccc(NC(=O)CCS(=O)(=O)c2cccc3nonc23)c(C)c1`, the “activation” value was inactive: 7.17%.
As to `CCCN1C(C(=O)c2ccccc2)=C(OC(=O)c2ccc(F)cc2)c2ccccc2S1(=O)=O`, the “activation” value was inactive: -11.4%.
As for `Cc1ccc(C)c(Cn2c3ccccc3c3cnn(CC(=O)N4CCCCC4)c(=O)c32)c1`, the “activation” value is inactive: -15.4%.
Turning to `CCOc1ccc(NC(=O)Cn2c(CCC(=O)O)ccc2-c2ccc(Cl)cc2)cc1`, the “activation” value was inactive: -9.39%.
Take `COc1cc2c(C(=O)N3CCN(c4cccc(C)c4)C(C)C3)cn(CC(C)C)c(=O)c2cc1OC` (configuration not stated): the “activation” value was inactive: 0.862%.
`Cc1cccc(-n2c(=O)c3ccccc3n(Cc3ccccc3C#N)c2=O)c1`: the “activation” value was inactive: -8.16%.
For the compound `Cc1nn(CCC(=O)NC(C)C)c(=O)c2nn(-c3ccccc3)c(C)c12`, the “activation” value was inactive: -4.55%.
Regarding `O=C(OCCN1CCOCC1)c1cccnc1Nc1cccc(C(F)(F)F)c1`, the “activation” value is inactive: -10.9%.
Consider `COc1ccc(Cl)cc1NC(=O)c1cc(S(=O)(=O)N2CCc3ccccc32)cn1C`, for which the “activation” value was inactive: -9.84%.
Take `COc1cccc(Cc2nc3ccccc3nc2SCC(=O)N2CCCCC2C)c1` (configuration not stated): the “activation” value is inactive: -17%.
For `Cc1ccc2nc(NCc3ccccc3Cl)c3nnnn3c2c1`, the “activation” value is inactive: -5.93%.
As to `O=C(CSc1nc2c([nH]c3ccccc32)c(=O)n1-c1cccc(Cl)c1)N1CCc2ccccc21`, the “activation” value was inactive: -8.11%.
For `CCc1nnc(NC(=O)c2nc(S(C)(=O)=O)ncc2Cl)s1`, the “activation” value was inactive: -4.76%.
Consider `COc1cc2ccccc2cc1C(=O)Nc1ccc2oc(-c3cc(Br)ccc3Cl)nc2c1`, for which the “activation” value is inactive: -19.8%.
`CCOc1ccccc1NC(=O)c1sc2nc3c(cc2c1N)CN(Cc1ccccc1)CC3`: the “activation” value was inactive: -14.4%.
In the case of `COc1cc(NC(=O)CCc2c(C)n(C)c3cc(-c4ccccc4C)nn3c2=O)cc(OC)c1OC` it was inactive: 0.689%.
For `O=C(NCc1ccco1)c1ccc2c(c1)N(Cc1ccc(F)cc1)C(=O)c1ccccc1S2=O` (configuration not stated), the “activation” value was inactive: -9.22%.
`O=C(CN1C(=O)CSc2ccc(S(=O)(=O)N3CCCCC3)cc21)NCc1ccc(F)cc1Cl`: the “activation” value was inactive: -23.9%.
As to `CC(C)(C)c1ccc(C(=O)CCCCl)cc1`, the “activation” value is inactive: -10.6%.
`COc1cccc(C(=O)CN2CCN(S(=O)(=O)c3ccc(Cl)cc3)CC2)c1`: the “activation” value was inactive: -10.7%.
As to `Cc1cc(CCCOc2c(C)cc(-c3noc(C(F)(F)F)n3)cc2C)on1`, the “activation” value is inactive: -7.56%.
As to `Cc1ccc(-c2[nH]c(-c3ccccc3)nc2SCC(=O)NCC2CCCO2)cc1` (configuration not stated), the “activation” value was inactive: -12.5%.
Regarding `COc1ccc(NC(=O)CN(C)S(=O)(=O)c2cnc[nH]2)cc1Cl`, the “activation” value is inactive: -9.96%.
As for `CCc1cccc(C)c1NC(=O)Cn1ccn(Cc2ccc(Cl)cc2)c(=O)c1=O`, the “activation” value is inactive: -10.3%.
For the compound `COc1ccc(-c2noc(COc3ccc(Br)cc3C)n2)cc1OC`, the “activation” value is inactive: -7.17%.
Regarding `OCCOCCN1CCN(C(c2ccccc2)c2ccc(Cl)cc2)CC1` (configuration not stated), the “activation” value is inactive: -15.1%.
`Cc1ccc(OCC(=O)Nc2cccc(C(=O)OCc3cc(=O)n4nc(C)sc4n3)c2)cc1`: the “activation” value is inactive: -15.8%.
For the compound `CCC(O)c1cc2c(cc1NC(=O)c1ccccc1F)OCCO2` (configuration not stated), the “activation” value is inactive: -9.92%.
Consider `O=C(CC1N=C2c3ccccc3N=C(SCc3cccc(F)c3)N2C1=O)NCc1ccc2c(c1)OCO2` (configuration not stated), for which the “activation” value is inactive: -0.319%.
With `O=C(O)c1ccc(NC(=O)c2cn(-c3ccccc3)nc2-c2ccc(Br)cc2)cc1`, the “activation” value is inactive: -13.6%.
Then `CCc1ccc(OCC(=O)Nc2ccc(-c3nc4ncccc4o3)cc2)cc1`, with inactive: -4%; and `Cc1ccc2c(c1C)NC(=O)CC2c1ccc(Cl)cc1Cl` (configuration not stated), with inactive: -12.6%; and `Cc1ccc(-c2cc(C(=O)Oc3ccccc3Cl)no2)cc1C`, with inactive: 14.2%.
Turning to `Cc1ccc(N2CCN(C(=O)c3cc(S(=O)(=O)N4CCCCC4)c[nH]3)CC2)c(C)c1`, the “activation” value was inactive: -15%.
In the case of `Cc1ccc2nc(Cl)c3cc(C(=O)NC4CCC(C)CC4)sc3c2c1` (configuration not stated), the “activation” value is inactive: -17.9%.
In the case of `COC(=O)c1cnc(N2CCN(c3ccc(F)cc3)CC2)c2ccccc12` it was inactive: -15.4%; in that of `COc1ccc(CCNC(=O)c2ccc3c(Cl)c4c(nc3c2)CCCC4)c(OC)c1`, inactive: -42.3%.
`CS(=O)(=O)N1CCCc2cc(C(=O)Nc3cccc(C(F)(F)F)c3)ccc21`: the “activation” value is inactive: -25.3%.
On to `Cc1cccc(OCC(=O)N(Cc2ccccc2)c2ccccn2)c1`, for which the “activation” value was inactive: -13.2%.
`COc1cc(-c2nc(-c3cccc(Cl)c3)c(-c3ccccc3)[nH]2)cc(OC)c1OC`: the “activation” value was inactive: 4.08%.
For `COc1ccc(OCC(=O)Nc2ccccc2C(=O)OCc2cc(=O)n3nc(C)sc3n2)cc1`, the “activation” value was inactive: 0.495%.
With `COC(=O)c1ccc(CSc2nc3c(c(=O)[nH]2)CCC3)cc1`, the “activation” value is inactive: -13.4%.
Take `O=C(NCCN1CCCCC1)c1ccc(Cn2c(SCc3cccc(F)c3)nc3cccnc32)cc1`: the “activation” value is inactive: -11.3%.
For `CC1CCC(NC(=O)c2ccc(CS(=O)(=O)c3c(Cl)cccc3Cl)o2)CC1` (configuration not stated), the “activation” value is inactive: 4.66%.
In the case of `Cc1ccc(C)c(N2CCN(S(=O)(=O)c3cnc(N)nc3)CC2)c1` it was inactive: -3.58%; in that of `Cc1ccc2nc(N3CCN(c4cccc(C)c4C)CC3)c3nncn3c2c1`, inactive: -7.99%.
Take `CCc1ccccc1NC(=O)Cn1c(=O)n(Cc2ccco2)c(=O)c2sc3ccccc3c21`: the “activation” value is inactive: 7.11%.
Take `Cc1ccc(NC(=O)Cn2c(=O)n(Cc3ccc4c(c3)OCO4)c(=O)c3ccccc32)c(C)c1`: the “activation” value is inactive: -7.82%.
In the case of `O=C(Nc1cc(Cl)cc(Cl)c1)c1ccc(F)c(S(=O)(=O)NC2CCCCC2)c1` it was inactive: -9.85%; in that of `CCCCc1ccc(NC(=O)CSc2nc3ccccc3nc2N2CCOCC2)cc1`, inactive: -17.7%; in that of `CC(C)c1ccc2oc(-c3ccc(NC(=O)c4cc5ccccc5o4)cc3)nc2c1`, inactive: -12.1%.
On to `COc1ccc(CCNC(=O)CCSCc2ccccc2Cl)cc1OC`, for which the “activation” value is inactive: 10.8%.
As for `O=C(NCCS(=O)(=O)N1CCN(c2ccc(F)cc2)CC1)C1CC(=O)N(c2ccc(F)cc2)C1` (configuration not stated), the “activation” value is inactive: -2.83%.
With `CCOC(=O)c1ccc2c(c1)N(Cc1ccccc1)C(=O)c1ccccc1S2`, the “activation” value was inactive: -10.3%.
`CC(C)CCn1c(=O)c2sccc2n2c(CCCC(=O)NC3CCC(C)CC3)nnc12` (configuration not stated): the “activation” value is inactive: -14.5%.
For `CCc1ccc(CNC(=O)Cn2c(-c3cccs3)cc3cc(F)ccc32)cc1`, the “activation” value was inactive: -2.57%.
In the case of `COc1ccccc1NC(=O)c1c(NC(=O)Cc2ccccc2)sc2c1CCC(C(C)(C)C)C2` (configuration not stated) it was inactive: -9.55%.
For the compound `CCn1nc(C)c(CCN(C)C(=O)Nc2cc(C)cc(C)c2)c1C`, the “activation” value was inactive: -11.9%.
Regarding `O=C(Nc1cnc(N2CCC(N3CCCCC3)CC2)c(C(=O)O)c1)c1ccc(Br)cc1`, the “activation” value was inactive: -6.02%.
For `CCn1ccc2c(OCC(=O)NCc3ccc(C)cc3)cccc2c1=O`, the “activation” value was inactive: 3.74%.
In the case of `COc1ccccc1NC(=O)Cn1c(=O)n(Cc2ccccc2)c(=O)c2c3c(sc21)CN(C(C)=O)CC3` it was inactive: -11%; in that of `Cc1cc(C)nc(-n2nc(C)c3c2NC(=O)CC3c2cc(F)ccc2F)n1` (configuration not stated), inactive: -7.99%.
Turning to `Nc1nonc1C(=O)NCCNCc1ccc(Cl)c(Cl)c1`, the “activation” value was inactive: -11%.
As to `COc1ccc(-c2cc(C(C)=O)c(C)n2CCC(=O)Nc2ccc(C(F)(F)F)cc2)cc1`, the “activation” value is inactive: -10.9%.
Then `COc1ccc(CNC(=O)CSc2n[nH]c(-c3ccc(OC)cc3)n2)cc1`, with inactive: 5.75%; and `Cc1ccc(NC(=O)c2cc3c([nH]c2=O)CC(C)(C)CC3=O)c(C)c1`, with inactive: -21.1%.
Regarding `Cn1c(=O)cc(SCC(=O)N2CCN(c3ccccc3F)CC2)c2cc(Cl)ccc21`, the “activation” value is inactive: -18.3%.
Regarding `CC(C)Sc1ncc(Cl)c(C(=O)Nc2ccc(S(=O)(=O)Nc3ncccn3)cc2)n1`, the “activation” value is inactive: -11%.
In the case of `Cc1ccccc1-c1nc(CS(=O)(=O)CC(=O)Nc2cc(Cl)cc(Cl)c2)c(C)o1` it was inactive: -3.85%; in that of `O=C(CSc1ncc(-c2ccccc2)[nH]1)Nc1cccc(C(F)(F)F)c1`, inactive: -18.4%.
Then `Cc1cc(Cl)ccc1OCC(=O)Nc1c(C(=O)c2ccccc2)oc2ccccc12`, with inactive: -4.57%.
As for `COc1cc(Cn2c(=O)sc3ccccc32)ccc1OCCC(C)C`, the “activation” value is inactive: -20.4%.
With `CC(C)c1ccc2c(c1)-c1ccccc1S(=O)(=O)N2CC(=O)N1CCCCC1`, the “activation” value is inactive: -10.8%.
As to `CCOc1ccc(C(=O)NCCn2cc(SCC(=O)Nc3ccccc3)c3ccccc32)cc1`, the “activation” value is inactive: -32.1%.
Then `COC(=O)c1cc(NC(=O)c2sc3ncn(Cc4cccc(F)c4)c(=O)c3c2C)cc(C(=O)OC)c1`, with inactive: -7.02%; and `Cc1ccc(-n2c(SCC(=O)NCc3ccccc3)nc3c([nH]c4ccccc43)c2=O)cc1`, with inactive: 2.12%.
Turning to `COc1cc(CN(C(=O)c2cccc(C)c2)c2ccccn2)cc(OC)c1OC`, the “activation” value is inactive: -38.4%.
Then `Cc1ccccc1CCNC(=O)C1CCN(c2nc3ccccc3nc2C(F)(F)F)CC1`, with inactive: -12%; and `CCC1CCCCN1C(=O)c1nn(-c2ccc(OC)cc2)c(=O)c2c1c1ccccc1n2C` (configuration not stated), with inactive: -7.44%; and `O=C(NCc1ccccc1Cl)c1cc(=O)[nH]c2ccc(S(=O)(=O)N3CCCCC3)cc12`, with inactive: -5.71%.
